These results are taken from the BET-seq Pho4 binding data (Le et al. 2018).

The list shows a part of the results. The energies were worked out here from pooled read counts, against the library average; single values are noisy.

The experiment deals with T1, Pho4 (S. cerevisiae) (UniProt P07270).
T1 sequence: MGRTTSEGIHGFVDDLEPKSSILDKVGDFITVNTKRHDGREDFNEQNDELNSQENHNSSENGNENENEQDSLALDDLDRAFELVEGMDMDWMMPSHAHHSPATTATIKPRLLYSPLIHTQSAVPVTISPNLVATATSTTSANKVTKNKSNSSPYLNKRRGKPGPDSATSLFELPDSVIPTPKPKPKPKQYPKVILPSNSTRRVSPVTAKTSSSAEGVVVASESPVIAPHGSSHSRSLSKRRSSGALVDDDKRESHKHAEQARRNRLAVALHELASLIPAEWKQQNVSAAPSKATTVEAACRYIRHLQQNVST
Put plainly: relative binding free energy (BET-seq); higher = weaker binding. Particulars: reference: library average.
For AGGTTCACGTGATTGC, the “relative binding free energy” value is 0.35 kcal/mol.

With GCTAACACGTGGGGGA, the “relative binding free energy” value was -0.11 kcal/mol.

For TTATGCACGTGCAGTT, the “relative binding free energy” value was -0.03 kcal/mol.

AGAATCACGTGATTTA: the “relative binding free energy” value worked out at 0.26 kcal/mol.

Consider GTTTGCACGTGCGTGC, for which the “relative binding free energy” value is -0.03 kcal/mol.

Turning to GGGTGCACGTGGGAGT, the “relative binding free energy” value was -0.01 kcal/mol.

In the case of TTGATCACGTGGGCGT, the “relative binding free energy” value came to 0.09 kcal/mol.

In the case of GTGAGCACGTGGTGTG, the “relative binding free energy” value was -0.07 kcal/mol.

Take TGAGACACGTGATGGA: the “relative binding free energy” value was found to be 0 kcal/mol.

In the case of TTCTGCACGTGGTTTC, the “relative binding free energy” value was 0.04 kcal/mol.

In the case of GTCAGCACGTGGGATT, the “relative binding free energy” value is -0.16 kcal/mol.

Turning to CAGGGCACGTGAGTGT, the “relative binding free energy” value amounted to 0.14 kcal/mol.

On to TTCGGCACGTGAGTGT, for which the “relative binding free energy” value amounted to 0.15 kcal/mol.

For the sequence GGGGGCACGTGTACTG, the “relative binding free energy” value was -0.01 kcal/mol.

On to TCTGGCACGTGTCGGT, for which the “relative binding free energy” value was determined as 0.06 kcal/mol.

GGTATCACGTGGTTTA: the “relative binding free energy” value worked out at 0.21 kcal/mol.

On to TAATGCACGTGTGGTT, for which the “relative binding free energy” value was found to be 0.08 kcal/mol.

Take TCGTGCACGTGTATGT: the “relative binding free energy” value was -0.1 kcal/mol.

As for TACGACACGTGGCGGG, the “relative binding free energy” value is 0.01 kcal/mol.

In the case of GATTACACGTGGGGGT, the “relative binding free energy” value was found to be 0.12 kcal/mol.

Regarding AGGGGCACGTGATCGA, the “relative binding free energy” value is -0.04 kcal/mol.

Regarding TCAGGCACGTGACGGG, the “relative binding free energy” value was -0.05 kcal/mol.

Turning to GTGTTCACGTGGCGGG, the “relative binding free energy” value worked out at 0.23 kcal/mol.

In the case of TTCGACACGTGGGGGA, the “relative binding free energy” value was -0.19 kcal/mol.

In the case of GAGGTCACGTGCGGGA, the “relative binding free energy” value was 0.25 kcal/mol.

Turning to GGGTACACGTGAAATT, the “relative binding free energy” value turned out to be 0.39 kcal/mol.

Regarding CTTTACACGTGGGATG, the “relative binding free energy” value turned out to be 0.01 kcal/mol.

Take TGGGTCACGTGGCCGA: the “relative binding free energy” value was -0.03 kcal/mol.

For the sequence GAGGTCACGTGTTAAG, the “relative binding free energy” value stood at 0.18 kcal/mol.

For GTGGTCACGTGCTTCG, the “relative binding free energy” value was found to be 0.11 kcal/mol.

Turning to AGGTGCACGTGGCGGT, the “relative binding free energy” value was -0.19 kcal/mol.

AAGCTCACGTGTGGGT: the “relative binding free energy” value was 0.23 kcal/mol.

On to TTACGCACGTGTAAGG, for which the “relative binding free energy” value turned out to be 0.05 kcal/mol.

Take GTTTGCACGTGAATAT: the “relative binding free energy” value worked out at 0.2 kcal/mol.

Turning to GTGAACACGTGACGTT, the “relative binding free energy” value was 0.29 kcal/mol.

With TGCTCCACGTGAGGTT, the “relative binding free energy” value amounted to 0.21 kcal/mol.

As for GCAGGCACGTGTGGAG, the “relative binding free energy” value was -0.13 kcal/mol.

Take GAGGTCACGTGGAGGG: the “relative binding free energy” value was 0.19 kcal/mol.

For CTTGCCACGTGGGTGG, the “relative binding free energy” value was -0.24 kcal/mol.

Consider CGCTGCACGTGGGAGT, for which the “relative binding free energy” value was -0.12 kcal/mol.

Consider TGGGTCACGTGCGTTC, for which the “relative binding free energy” value came out at 0.06 kcal/mol.

Take CATTGCACGTGCGTTG: the “relative binding free energy” value was -0.01 kcal/mol.

In the case of ACGTGCACGTGTTTGT, the “relative binding free energy” value was -0.12 kcal/mol.

Regarding GTGGACACGTGATAGT, the “relative binding free energy” value stood at 0.2 kcal/mol.

For the sequence TGATACACGTGTTGGG, the “relative binding free energy” value amounted to 0.01 kcal/mol.

With TTGGACACGTGTTCAG, the “relative binding free energy” value was determined as 0.08 kcal/mol.

In the case of CGGAGCACGTGTTGGT, the “relative binding free energy” value was -0.09 kcal/mol.

Take CTGAACACGTGTTTTT: the “relative binding free energy” value is 0.1 kcal/mol.

As for AGTAGCACGTGCGGAT, the “relative binding free energy” value was -0.19 kcal/mol.

Turning to TAGCTCACGTGGGATT, the “relative binding free energy” value worked out at 0.19 kcal/mol.

With AGCTTCACGTGTTCTG, the “relative binding free energy” value is 0.29 kcal/mol.

With GTGGGCACGTGTTTTC, the “relative binding free energy” value is -0.05 kcal/mol.

Regarding ATGTACACGTGGTTCG, the “relative binding free energy” value stood at 0 kcal/mol.

For GGCTTCACGTGGTATT, the “relative binding free energy” value was 0.28 kcal/mol.

As for TTCATCACGTGGTCGT, the “relative binding free energy” value amounted to 0.06 kcal/mol.

Turning to TGTGTCACGTGTCACT, the “relative binding free energy” value was 0.13 kcal/mol.

As to ATAGACACGTGTGGGC, the “relative binding free energy” value came out at 0.24 kcal/mol.

As for AGGTGCACGTGGTCAA, the “relative binding free energy” value is -0.15 kcal/mol.

As for GTTAGCACGTGCTGGT, the “relative binding free energy” value was -0.01 kcal/mol.

For the sequence GGGCGCACGTGGTTGG, the “relative binding free energy” value is -0.08 kcal/mol.

Consider AGAGGCACGTGTCGGT, for which the “relative binding free energy” value was -0.07 kcal/mol.

In the case of GATTACACGTGTGATT, the “relative binding free energy” value was 0.17 kcal/mol.

In the case of GTGAGCACGTGTTACT, the “relative binding free energy” value is -0.04 kcal/mol.

Regarding CTGTCCACGTGGTTGT, the “relative binding free energy” value was -0.07 kcal/mol.

GCGGGCACGTGTCGGC: the “relative binding free energy” value is 0.19 kcal/mol.

Turning to ACCTGCACGTGGTGTG, the “relative binding free energy” value is -0.17 kcal/mol.

Consider GGGTACACGTGTTGGA, for which the “relative binding free energy” value came out at 0.27 kcal/mol.

Turning to GTTCGCACGTGTGGCA, the “relative binding free energy” value stood at 0.17 kcal/mol.

In the case of GGGCCCACGTGTTGGG, the “relative binding free energy” value was -0.02 kcal/mol.

For the sequence AGGAGCACGTGTCTGT, the “relative binding free energy” value is -0.08 kcal/mol.

As for TTGTGCACGTGGTGGC, the “relative binding free energy” value was found to be 0 kcal/mol.

Consider GTATACACGTGTAGAT, for which the “relative binding free energy” value was determined as 0.25 kcal/mol.

AATGGCACGTGTTGTT: the “relative binding free energy” value was -0.03 kcal/mol.

As to AAAGACACGTGGTGGG, the “relative binding free energy” value is -0.07 kcal/mol.

For the sequence TATGTCACGTGCTGGA, the “relative binding free energy” value is -0.01 kcal/mol.

For the sequence TGGGGCACGTGGCCGC, the “relative binding free energy” value is -0.17 kcal/mol.

As for ATGTTCACGTGTAGGA, the “relative binding free energy” value was 0.25 kcal/mol.

Regarding GCTTGCACGTGTGTTG, the “relative binding free energy” value was -0.04 kcal/mol.

On to TGCGGCACGTGGTTCT, for which the “relative binding free energy” value is -0.22 kcal/mol.

In the case of GAACTCACGTGGATGT, the “relative binding free energy” value worked out at 0.41 kcal/mol.

Regarding GCTGTCACGTGAGTGG, the “relative binding free energy” value was found to be 0.25 kcal/mol.

Take GATAGCACGTGGTGCG: the “relative binding free energy” value is -0.14 kcal/mol.

Turning to GAGTGCACGTGAGAGG, the “relative binding free energy” value was 0.12 kcal/mol.

In the case of ATGGGCACGTGTCAGG, the “relative binding free energy” value is -0.17 kcal/mol.

As to TTATCCACGTGGGGGG, the “relative binding free energy” value was -0.19 kcal/mol.

TAGTTCACGTGTGTGA: the “relative binding free energy” value turned out to be 0.16 kcal/mol.

Regarding TATCGCACGTGGTGTG, the “relative binding free energy” value is -0.17 kcal/mol.

Regarding GTTTTCACGTGCAGGC, the “relative binding free energy” value is 0.32 kcal/mol.

As for CTTGCCACGTGTGTGG, the “relative binding free energy” value was -0.13 kcal/mol.

For GTCGACACGTGGGGTT, the “relative binding free energy” value is -0.09 kcal/mol.

With TTATCCACGTGTGTAT, the “relative binding free energy” value is 0.02 kcal/mol.

TTCTACACGTGGATGG: the “relative binding free energy” value worked out at 0.02 kcal/mol.

For GATTACACGTGTGTAT, the “relative binding free energy” value came to 0.12 kcal/mol.

As to GATTTCACGTGAATGG, the “relative binding free energy” value amounted to 0.46 kcal/mol.

Turning to TTCATCACGTGTTGTC, the “relative binding free energy” value amounted to 0.08 kcal/mol.

For the sequence AATTTCACGTGAGGCT, the “relative binding free energy” value was determined as 0.15 kcal/mol.

Turning to TATGGCACGTGATCTT, the “relative binding free energy” value was -0.08 kcal/mol.

For the sequence GGTGGCACGTGTCTTC, the “relative binding free energy” value was determined as 0.19 kcal/mol.

On to CAGGACACGTGGATGG, for which the “relative binding free energy” value is 0.06 kcal/mol.

For the sequence TATTACACGTGGCTTT, the “relative binding free energy” value is -0.05 kcal/mol.

As to AGTCACACGTGGCGGG, the “relative binding free energy” value is -0.03 kcal/mol.

Take TCATTCACGTGGTGTT: the “relative binding free energy” value turned out to be 0.12 kcal/mol.

As for GCGGACACGTGGGAGG, the “relative binding free energy” value is -0.09 kcal/mol.

In the case of AAGGTCACGTGATGGG, the “relative binding free energy” value was found to be 0.19 kcal/mol.

As to TTAATCACGTGATTGT, the “relative binding free energy” value is 0.23 kcal/mol.

TGAGTCACGTGTGTTG: the “relative binding free energy” value amounted to 0.13 kcal/mol.

GGAGGCACGTGGCAGG: the “relative binding free energy” value was -0.11 kcal/mol.

CTTATCACGTGGTGTT: the “relative binding free energy” value was 0.08 kcal/mol.

For TACACCACGTGGTGTG, the “relative binding free energy” value is -0.1 kcal/mol.

For AGAAACACGTGAAGTG, the “relative binding free energy” value worked out at 0.29 kcal/mol.

TCTTACACGTGGTGTC: the “relative binding free energy” value amounted to 0.09 kcal/mol.

On to TGGGGCACGTGATTAC, for which the “relative binding free energy” value is -0.01 kcal/mol.

As for TTAGTCACGTGCATTT, the “relative binding free energy” value came out at 0.27 kcal/mol.

For the sequence TGGAGCACGTGTGGGT, the “relative binding free energy” value is -0.03 kcal/mol.

Turning to TAAAGCACGTGTGCTG, the “relative binding free energy” value was -0.04 kcal/mol.
